Results reported in ChEMBL document CHEMBL5308541, “MAIP: An Open-Source Tool to Enrich High-Throughput Screening Output and Identify Novel, Druglike Molecules with Antimalarial Activity” (ACS Med Chem Lett, 2023).
The campaign covered roughly 150,000 compounds. About 540 (0.36%) showed an effect of 50% or more. Some of the results follow.

Each compound was assayed on Plasmodium falciparum (assay: Primary screen in NF54 nanoGlo assay, in single point, at 2uM, 72h; a lower Z score goes with more inhibition). Details: timepoint 72 hour.
Format: functional, Erythrocyte
For CCN1CCCCC1CNc1cc(N2CCCC2C(N)=O)ncn1 (centres undefined), the “% Inhibition” value was -10% and the Z score was 1.73.
For N#Cc1nccnc1Nc1ccc(Oc2ccccc2Cl)cc1, the “% Inhibition” value was -7% and the Z score was 1.31.
With O[C@@H](CNc1nc2ccccc2s1)c1ccc2ccccc2c1 the “% Inhibition” value was -4% and the Z score was 0.64.
With O=C(c1csc(Nc2ccccn2)n1)N1CCCN(CC2CCC2)CC1 the “% Inhibition” value was -8% and the Z score was 1.49.
In the case of O=C(O)C1CCC(C(=O)NCc2cnc3ccccc3c2)C1 (centres undefined), the “% Inhibition” value is reported as -1% and the Z score is reported as 0.1.
For COc1cccc(-c2cc3[nH]c4c(c(=O)n3n2)CCC4)c1, the “% Inhibition” value was -3% and the Z score was 0.44.
C[C@H](O)Cn1cnc(-c2ccccc2)c1-c1ccccc1-c1ccco1 was tested, and the “% Inhibition” value was 10% and the Z score was -2.07.
C[C@@H](CCNC(=O)N(Cc1ccc2[nH]ccc2c1)C1CC1)N1CCN(C)CC1 was tested, and the “% Inhibition” value was -1% and the Z score was 0.2.
For O=C(Nc1ccc2scnc2c1)NC1CCN(Cc2cccc(O)c2)CC1, the “% Inhibition” value was -5% and the Z score was 0.97.
c1cc2ccc(CN3CCC(OCCc4noc(C5CCOCC5)n4)CC3)cc2[nH]1 was tested, and the “% Inhibition” value was -1% and the Z score was 0.09.
For c1cc(N2CCNCC2)ccc1-c1ccc2c(c1)OCC2, the “% Inhibition” value was -7% and the Z score was 1.24.
Cc1cnccc1OC1CCN(c2cc(N3CCC[C@H](CO)C3)ncn2)CC1 was tested, and the “% Inhibition” value was -11% and the Z score was 2.22.
